Experimental data from patent publication US20250019440A1 (Zymeworks, published 2025).

What was measured:
Human PD-L1 [1] = target: T1, Human PD-L1 (human, UniProt Q9NZQ7 partial chain); assay: SPR, PD-L1 amine-coupled, variant as analyte, 1:1 model
T1 construct: Amine-coupled to a CM5 chip for SPR; also called recombinant human PD-L1

Human PD-L2 = target: T2, Human PD-L2 (human, UniProt Q9BQ51 20-219); assay: SPR, PD-L2 amine-coupled, variant as analyte, 1:1 model
T2 construct: Amine-coupled to a CM5 chip for SPR; also called recombinant PD-L2
T2 sequence (looked up): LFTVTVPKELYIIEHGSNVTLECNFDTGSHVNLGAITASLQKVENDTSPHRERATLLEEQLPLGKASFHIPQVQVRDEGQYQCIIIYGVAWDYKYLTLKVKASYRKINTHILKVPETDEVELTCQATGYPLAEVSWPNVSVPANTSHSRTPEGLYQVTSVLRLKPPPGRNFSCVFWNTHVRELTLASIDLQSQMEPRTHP

PD-L1 on cells = PD-L1 on cells (UniProt Q9NZQ7); assay: cell-based or functional assay
Cynomolgus monkey PD-L1 = target: T3, Cynomolgus monkey PD-L1 (cynomolgus monkey, UniProt G7PSE7 19-239); assay: SPR, PD-L1 amine-coupled, variant as analyte, 1:1 model
T3 construct: Amine-coupled to a CM5 chip for SPR; also called recombinant cynomolgus monkey PD-L1

Mouse PD-L1 = target: T4, Mouse PD-L1 (mouse, UniProt Q9EP73 partial chain, limits assumed); assay: as above
T4 construct: Amine-coupled to a CM5 chip for SPR; also called recombinant mouse PD-L1

Human PD-L1 [2] = target: T1, Human PD-L1; assay: as above; remark: listed apart in the source
Human CD3 (recombinant) [3] = target: Human CD3 (recombinant) (human); assay: SPR, CD3 amine-coupled, variant as analyte, 1:1 model
Human CD3 (recombinant) [4] = target: Human CD3 (recombinant) (human); assay: as above; remark: listed apart in the source
Human mesothelin = target: T5, Human mesothelin (human, UniProt Q13421 296-580, limits assumed); assay: SPR, mesothelin amine-coupled; apparent KD, variant binds mesothelin bivalently but was fit 1:1
T5 construct: Amine-coupled to a CM5 chip for SPR; also called MSLN; recombinant human mesothelin

Human PD-L1 [5] = target: T1, Human PD-L1; assay: SPR, PD-L1 amine-coupled, variant as analyte, 1:1 model; remark: listed apart in the source

T1 sequence (Q9NZQ7 19-239 limits assumed): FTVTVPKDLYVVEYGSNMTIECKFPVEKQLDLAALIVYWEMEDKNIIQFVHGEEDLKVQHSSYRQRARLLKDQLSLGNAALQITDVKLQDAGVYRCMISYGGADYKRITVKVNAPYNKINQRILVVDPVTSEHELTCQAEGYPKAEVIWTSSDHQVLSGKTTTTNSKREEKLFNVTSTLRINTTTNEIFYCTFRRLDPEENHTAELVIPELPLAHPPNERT
Chain of Human CD3 (recombinant) (chain, as listed by the source): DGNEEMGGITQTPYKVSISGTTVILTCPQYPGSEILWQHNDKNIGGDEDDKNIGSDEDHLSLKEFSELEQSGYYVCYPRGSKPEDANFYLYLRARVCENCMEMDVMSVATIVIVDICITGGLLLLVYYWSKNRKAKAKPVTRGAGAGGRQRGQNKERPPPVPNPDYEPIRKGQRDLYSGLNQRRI
Chain of Cynomolgus monkey PD-L1 (G7PSE7 entry or part of it): as the sequence (Q9NZQ7 19-239 limits assumed) above, with A33T, A34S, S62N, R68Q, Q82R, F173L, T185A, T192I, H215L counted along it
Chain of Mouse PD-L1 (Q9EP73 19-238 limits assumed): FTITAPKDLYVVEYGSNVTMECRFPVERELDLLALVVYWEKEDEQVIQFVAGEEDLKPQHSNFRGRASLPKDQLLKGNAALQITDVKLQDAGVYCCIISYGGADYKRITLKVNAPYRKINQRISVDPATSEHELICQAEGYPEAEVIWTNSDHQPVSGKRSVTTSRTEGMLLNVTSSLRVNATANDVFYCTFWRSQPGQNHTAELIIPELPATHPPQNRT
Chain of Human mesothelin (Q13421 other isoform, or with tags, fused parts or gaps limits assumed): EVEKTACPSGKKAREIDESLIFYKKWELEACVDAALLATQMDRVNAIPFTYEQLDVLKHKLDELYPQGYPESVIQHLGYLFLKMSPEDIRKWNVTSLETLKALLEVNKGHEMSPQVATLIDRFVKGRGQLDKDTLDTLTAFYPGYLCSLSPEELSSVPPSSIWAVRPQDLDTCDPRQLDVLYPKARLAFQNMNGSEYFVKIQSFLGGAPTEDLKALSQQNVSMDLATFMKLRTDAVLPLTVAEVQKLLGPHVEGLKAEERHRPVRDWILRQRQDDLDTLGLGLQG
Chain of PD-L1 on cells (Q9NZQ7 19-290 limits assumed): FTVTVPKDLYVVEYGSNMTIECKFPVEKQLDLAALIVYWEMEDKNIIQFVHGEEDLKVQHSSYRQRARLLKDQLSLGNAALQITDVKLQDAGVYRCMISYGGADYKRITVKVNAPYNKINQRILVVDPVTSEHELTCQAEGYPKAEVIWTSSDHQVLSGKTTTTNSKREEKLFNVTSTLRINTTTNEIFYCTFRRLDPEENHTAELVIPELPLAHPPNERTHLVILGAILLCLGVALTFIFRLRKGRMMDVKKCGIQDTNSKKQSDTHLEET

B1: v38917 (other)
heavy 1: DIQMTQSPSSLSASVGDRVTITCSASSSVSYMHWYQQKSGKAPKLLIYDTSKLASGVPSRFSGSGSGTDFTLTISSLQPEDFATYYCQQWSGYPLTFGQGTKLEIKGGGGSGGGGSGGGGSGGGGSQVQLVQSGAEVKKPGASVKVSCKASGYSFTGYTMNWVRQAPGQGLEWMGLITPYNGASSYNQKFRGKATMTVDTSTSTVYMELSSLRSEDTAVYYCARGGYDGRGFDYWGQGTLVTVSSGGGGSGEVQLVESGGGLVQPGGSLRLSCAASGVTFNYYGMSWIRQAPGKGLEWVASITSSGGRIYYPDSVKGRFTISRENTQKTLYLQMNSLRAEDTAVYYCTLDGRDGWVAYWGQGTLVTVSSASTKGPSVFPLAPSSKSTSGGTAALGCLVKDYFPEPVTVSWNSGALTSGVHTFPAVLQSSGLYSLSSVVTVPSSSLGTQTYICNVNHKPSNTKVDKK[human IgG1 Fc with changes not shown]
light: NFMLTQPHSVSESPGKTVTISCKRNTGNIGSNYVNWYQQHEGSSPTTIIYRNDKRPDGVSDRFSGSIDRSSKSASLTISNLKTEDEADYFCQSYSSGFIFGGGTKLTVLGQPKAAPSVTLFPPSSEELQANKATLVCLISDFYPGAVTVAWKADSSPVKAGVETTTPSKQSNNKYAASSYLSLTPEQWKSHRSYSCQVTHEGSTVEKTVAPTECS
heavy 2: NPPTFSPALLVVTEGDNATFTCSFSNTSESFVLNWYRMSPSNQTDKLAAFPEDRSQPGQDARFRVTQLPNGRDFHMSVVRARRNDSGTYLCGAISLAPKLQIKESLRAELRVTEGGGGSGDIQMTQSPSSLSASVGDRVTITCSASSSVSYMHWYQQKSGKAPKLLIYDTSKLASGVPSRFSGSGSGTDFTLTISSLQPEDFATYYCQQWSGYPLTFGQGTKLEIKGGGGSGGGGSGGGGSGGGGSQVQLVQSGAEVKKPGASVKVSCKASGYSFTGYTMNWVRQAPGQGLEWMGLITPYNGASSYNQKFRGKATMTVDTSTSTVYMELSSLRSEDTAVYYCARGGYDGRGFDYWGQGTLVTVSSAAEPKSSDKTHTCPPCPAPEAAGGPSVFLFPPKPKDTLMISRTPEVTCVVVSVSHEDPEVKFNWYVDGVEVHNAKTKPREEQYNSTYRVVSVLTVLHQDWLNGKEYKCKVSNKALPAPIEKTISKAKGQPREPQVYVLPPSRDELTKNQVSLLCLVKGFYPSDIAVEWESNGQPENNYLTWPPVLDSDGSFFLYSKLTVDKSRWQQGNVFSCSVMHEALHNHYTQKSLSLSPG
In the case of B1, the Kd (Human PD-L1 [1]) is reported as 110 nM and the Kd (Human PD-L2) is reported as 120 nM.

B2: v38918 (other)
heavy 1: DIQMTQSPSSLSASVGDRVTITCSASSSVSYMHWYQQKSGKAPKLLIYDTSKLASGVPSRFSGSGSGTDFTLTISSLQPEDFATYYCQQWSGYPLTFGQGTKLEIKGGGGSGGGGSGGGGSGGGGSQVQLVQSGAEVKKPGASVKVSCKASGYSFTGYTMNWVRQAPGQGLEWMGLITPYNGASSYNQKFRGKATMTVDTSTSTVYMELSSLRSEDTAVYYCARGGYDGRGFDYWGQGTLVTVSSGGGGSGEVQLVESGGGLVQPGGSLRLSCAASGVTFNYYGMSWIRQAPGKGLEWVASITSSGGRIYYPDSVKGRFTISRENTQKTLYLQMNSLRAEDTAVYYCTLDGRDGWVAYWGQGTLVTVSSASTKGPSVFPLAPSSKSTSGGTAALGCLVKDYFPEPVTVSWNSGALTSGVHTFPAVLQSSGLYSLSSVVTVPSSSLGTQTYICNVNHKPSNTKVDKK[human IgG1 Fc with changes not shown]
light: B1 light
heavy 2: B1 heavy 2 with L100A
Work on B2 yielded a Kd (Human PD-L1 [1]) of 1400 nM and a Kd (Human PD-L2) of 670 nM.

B3: v38408 (other)
heavy 1: [about 120 residues not shown]GGGSGEVQLVESGGGLVQPGGSLRLSCAASGVTFNYYGMSWIRQAPGKGLEWVASITSSGGRIYYPDSVKGRFTISRENTQKTLYLQMNSLRAEDTAVYYCTLDGRDGWVAYWGQGTLVTVSSASTKGPSVFPLAPSSKSTSGGTAALGCLVKDYFPEPVTVSWNSGALTSGVHTFPAVLQSSGLYSLSSVVTVPSSSLGTQTYICNVNHKPSNTKVDKK[human IgG1 Fc with changes not shown]
light: B1 light
heavy 2: QVQLVESGGGLVQPGGSLRLSCSVSGIDLSSNPMIWVRQAPGKGLQYIGIIDTDGSTYYADWAKGRFTISKDSTTVYLQINSPRAEDTAVYYCARRLHGSSNGYYDDLWGQGTLVTVSSGGGGSGGGGSGGGGSGGGGSDGQMTQSPSSVSASVGDRVTITCQASQSIYSYLSWYQQKPGQRPKLLIYKASTLASGVPSRFSGSGSGTDFTLTISSVQPEDFATYYCQQGYTVTNVDKNTFGGGTKVEIKAAEPKSSDKTHTCPPCPAPEAAGGPSVFLFPPKPKDTLMISRTPEVTCVVVSVSHEDPEVKFNWYVDGVEVHNAKTKPREEQYNSTYRVVSVLTVLHQDWLNGKEYKCKVSNKALPAPIEKTISKAKGQPREPQVYVLPPSRDELTKNQVSLLCLVKGFYPSDIAVEWESNGQPENNYLTWPPVLDSDGSFFLYSKLTVDKSRWQQGNVFSCSVMHEALHNHYTQKSLSLSPG
For B3, the “EC50 (read off the curve); hybrid PD-1/PD-L1 reporter gene assay, delta RLU, PD-1+ Jurkat T cells with SNU-620 cells, top graph; composite signal of CD3 engagement and PD-1:PD-L1 blockade” value (PD-L1 on cells) was roughly 0.01 nM, the Kd (Cynomolgus monkey PD-L1) was 3.5 nM and the Kd (Mouse PD-L1) was 8.1 nM. For the same binder, the Kd (Human PD-L1 [2]) was 3.7 nM and the Kd (Human CD3 (recombinant) [3]) was 84 nM.

B4: v38921 (other)
heavy 1: DIQMTQSPSSLSASVGDRVTITCSASSSVSYMHWYQQKSGKAPKLLIYDTSKLASGVPSRFSGSGSGTDFTLTISSLQPEDFATYYCQQWSGYPLTFGQGTKLEIKGGGGSGGGGSGGGGSGGGGSQVQLVQSGAEVKKPGASVKVSCKASGYSFTGYTMNWVRQAPGQGLEWMGLITPYNGASSYNQKFRGKATMTVDTSTSTVYMELSSLRSEDTAVYYCARGGYDGRGFDYWGQGTLVTVSSGGGGSGEVQLVESGGGLVQPGGSLRLSCAASGVTFNYYGMSWIRQAPGKGLEWVASITSSGGRIYYPDSVKGRFTISRENTQKTLYLQMNSLRAEDTAVYYCTLDGRDGWVAYWGQGTLVTVSSASTKGPSVFPLAPSSKSTSGGTAALGCLVKDYFPEPVTVSWNSGALTSGVHTFPAVLQSSGLYSLSSVVTVPSSSLGTQTYICNVNHKPSNTKVDKK[human IgG1 Fc with changes not shown]
light: B1 light
heavy 2: DIQMTQSPSSLSASVGDRVTITCSASSSVSYMHWYQQKSGKAPKLLIYDTSKLASGVPSRFSGSGSGTDFTLTISSLQPEDFATYYCQQWSGYPLTFGQGTKLEIKGGGGSGGGGSGGGGSGGGGSQVQLVQSGAEVKKPGASVKVSCKASGYSFTGYTMNWVRQAPGQGLEWMGLITPYNGASSYNQKFRGKATMTVDTSTSTVYMELSSLRSEDTAVYYCARGGYDGRGFDYWGQGTLVTVSSAAEPKSSDKTHTCPPCPAPEAAGGPSVFLFPPKPKDTLMISRTPEVTCVVVSVSHEDPEVKFNWYVDGVEVHNAKTKPREEQYNSTYRVVSVLTVLHQDWLNGKEYKCKVSNKALPAPIEKTISKAKGQPREPQVYVLPPSRDELTKNQVSLLCLVKGFYPSDIAVEWESNGQPENNYLTWPPVLDSDGSFFLYSKLTVDKSRWQQGNVFSCSVMHEALHNHYTQKSLSLSPGGGGGSGDRPWNPPTFSPALLVVTEGDNATFTCSFSNTSESFVLNWYRMSPSNQTDKLAAFPEDRSQPGQDARFRVTQLPNGRDFHMSVVRARRNDSGTYLCGAISLAPKLQIKESLRAELRVTE
For B4, the Kd (Human PD-L1 [1]) was 420 nM and the Kd (Human PD-L2) was 240 nM.

B5: v38452 (other)
heavy 1: DIQMTQSPSSLSASVGDRVTITCSASSSVSYMHWYQQKSGKAPKLLIYDTSKLASGVPSRFSGSGSGTDFTLTISSLQPEDFATYYCQQWSGYPLTFGQGTKLEIKGGGGSGGGGSGGGGSGGGGSQVQLVQSGAEVKKPGASVKVSCKASGYSFTGYTMNWVRQAPGQGLEWMGLITPYNGASSYNQKFRGKATMTVDTSTSTVYMELSSLRSEDTAVYYCARGGYDGRGFDYWGQGTLVTVSSGGGGSGEVQLVESGGGLVQPGGSLRLSCAASGVTFNYYGMSWIRQAPGKGLEWVASITSSGGRIYYPDSVKGRFTISRENTQKTLYLQMNSLRAEDTAVYYCTLDGRDGWVAYWGQGTLVTVSSASTKGPSVFPLAPSSKSTSGGTAALGCLVKDYFPEPVTVSWNSGALTSGVHTFPAVLQSSGLYSLSSVVTVPSSSLGTQTYICNVNHKPSNTKVDKK[human IgG1 Fc with changes not shown]
light: NFMLTQPHSVSESPGKTVTISCKRNTGNIGSNYVNWYQQHEGSSPTTIIYRNDKRPDGVSDRFSGSIDRSSKSASLTISNLKTEDEADYFCQSYSSGFIFGGGTKLTVLGQPKAAPSVTLFPPSSEELQANKATLVCLISDFYPGAVTVAWKADSSPVKAGVETTTPSKQSNNKYAASSYLSLTPEQWKSHRSYSCQVTHEGSTVEKTVAPTECSGGG[about 120 residues not shown]
heavy 2: DIQMTQSPSSLSASVGDRVTITCSASSSVSYMHWYQQKSGKAPKLLIYDTSKLASGVPSRFSGSGSGTDFTLTISSLQPEDFATYYCQQWSGYPLTFGQGTKLEIKGGGGSGGGGSGGGGSGGGGSQVQLVQSGAEVKKPGASVKVSCKASGYSFTGYTMNWVRQAPGQGLEWMGLITPYNGASSYNQKFRGKATMTVDTSTSTVYMELSSLRSEDTAVYYCARGGYDGRGFDYWGQGTLVTVSSAAEPKSSDKTHTCPPCPAPEAAGGPSVFLFPPKPKDTLMISRTPEVTCVVVSVSHEDPEVKFNWYVDGVEVHNAKTKPREEQYNSTYRVVSVLTVLHQDWLNGKEYKCKVSNKALPAPIEKTISKAKGQPREPQVYVLPPSRDELTKNQVSLLCLVKGFYPSDIAVEWESNGQPENNYLTWPPVLDSDGSFFLYSKLTVDKSRWQQGNVFSCSVMHEALHNHYTQKSLSLSPG
Work on B5 yielded a Kd (Human CD3 (recombinant) [4]) of 38 nM, a Kd (Human mesothelin) of 0.12 nM and a Kd (Human PD-L1 [5]) of 8.8 nM.

Residue numbers refer to the chain shown, from its start. Where two headings read alike, the source gives them in different places.
